Laboratory results published in PubChem BioAssay AID493208 (National Center for Advancing Translational Sciences (NCATS), 2011).
The whole screen tested about 44,000 compounds, of which about 340 (0.77%) were called active. Roughly 5% stayed inconclusive and do not appear here. The call rests on the fitted dose curve; in most records, active means well fitted inhibition curve with a large enough effect; inconclusive means small, poorly fitted or top-dose-only effect; inactive means flat fitted curve, though single readings scatter. The list shows a part of the results.

assay: Acumen qHTS Assay for Inhibitors of the mTORC1 Signaling Pathway in MEF (Tsc2-/-, p53-/-) Cells: Sytravon; conditions: phospho-rpS6 immunofluorescence/PI, 24 h; series mostly up to 38.3 µM; activity change, negative = inhibition: at the top concentration; further: nearly all actives have a fitted effect of over 50% in size;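 on activity change, negative = inhibition: plate controls were DMSO for no effect and rapamycin for full effect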
How it was run: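 Immunofluorescence of rpS6 phosphorylation in Tsc2-/-, p53-/- MEFs after 24 h compound exposure, normalized to propidium iodide signal. Activity is expressed as % positive cells, thresholded with 7.5 nM rapamycin.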
Potency means the concentration at half of the fitted maximal effect.

Compound	activity change, negative = inhibition	Potency
Cc1nc(N2CCOCC2)c2c(C(=O)N(C)c3ccccc3)c(C)oc2n1	inactive: 4.6%	
COc1ccccc1CNC(=O)C1CCN(C2=NS(=O)(=O)C(c3ccc(C)c(C)c3)=C2C)CC1	inactive: -10.8%	
Cc1cc(C)cc(OCC(=O)N(Cc2ccc(Cl)cc2)C2CCS(=O)(=O)C2)c1 (configuration not stated)	inactive: 8.31%	
COc1cc(CSc2ncc(CO)n2Cc2ccc(C)cc2)cc(OC)c1	inactive: -4.36%	
COc1ccc(CNC(=O)CCCN2C(=O)CCn3nc(-c4cn(C)c5ccccc45)cc32)cc1	inactive: -0.331%	
Cc1c(Cl)cccc1NC(=O)CSc1nc(=O)[nH]c2c1CCCC2	inactive: -10.3%	
O=C(NCCC1=CCCCC1)C1CCN(C(=O)N2CCOc3ccccc32)CC1	inactive: 7.2%	
COc1ccc(OC)c(NC(=O)Cn2ncc3c2-c2ccccc2OC3)c1	inactive: -7.92%	
O=C(NCCc1ccc(Cl)cc1)C1(c2cccs2)CCOCC1	inactive: -1.28%	
Cc1ccc(-n2c(=O)c3cccnc3n2CC(=O)Nc2ccc(C)cc2Cl)cc1	inactive: -3.22%	
O=C1CN(C(=O)c2ccc(S(=O)(=O)N3CCCCC3)cc2)C(c2ccc(F)cc2)c2cc(Cl)ccc2N1 (configuration not stated)	inactive: -6.21%	
Cc1cccc(-c2nc(CS(=O)CC(=O)NCc3ccc(Cl)cc3)c(C)o2)c1 (configuration not stated)	inactive: 1.59%	
O=C(NCCc1ccccc1)c1ccc(CSc2nc3cccnc3n2Cc2ccccc2F)cc1	inactive: -1.77%	
CCN(CC)CCn1c(=N)n(CCOc2ccccc2Cl)c2ccccc21		active: 5.85 µM
COc1ccc(C2=C(C)C(=O)N(Cc3ccc(C(=O)Nc4ccc(F)cc4C)cc3)S2(=O)=O)cc1	inactive: -1.56%	
COc1cccc(-c2cn3c(n2)sc2cc(C(=O)NCc4ccccc4F)ccc23)c1	inactive: -1.68%	
CCOC(=O)c1cc(-c2ccccc2)n(CC(=O)NCc2ccc(C)cc2)c1C	inactive: 1.17%	
CCOC(=O)c1c(C)oc2nc(C)nc(NCC3CCN(Cc4ccccc4C)CC3)c12	inactive: -12.7%	
Cc1ccc2nc(-c3cccc(NC(=O)c4cccc5c(Cl)cccc45)c3)oc2c1	inactive: 5.42%	
O=C(NCC(c1cccnc1)N1CCOCC1)C(=O)Nc1ccc(Cl)cc1 (configuration not stated)	inactive: -0.0425%	
COc1ccc(-c2[nH]ncc2C(=O)NCc2cccc(Cl)c2)cc1	inactive: 1.15%	
COc1ccc(C)cc1NC(=O)Cn1cc(S(=O)(=O)Cc2ccccc2Cl)c2ccccc21	inactive: -2.63%	
CCOc1cc2c(cc1OCC)C(c1c(F)cccc1Cl)CC(=O)N2 (configuration not stated)	inactive: -4.43%	
CCc1ccccc1NC(=O)c1nc(-c2ccncc2)no1	inactive: 7.13%	

Compound	activity change, negative = inhibition	Potency
O=C(NCCc1csc2nc(-c3ccc(F)cc3)nn12)c1ccco1	inactive: -11.9%	
COc1cc(C2C(C(=O)Nc3ccccc3)=C(C)Nc3nc(SCc4ccccc4F)nn32)cc(OC)c1OC (configuration not stated)	inactive: -26.3%	
CCOC(=O)c1c(S(=O)(=O)N2CCC(C(=O)N3CCN(c4cc(C)ccc4C)CC3)CC2)c(C)n(C)c1C	inactive: -0.313%	
Cc1sc2c(c1C)c(=O)n(-c1ccc(Cl)cc1)c(=O)n2Cc1c(F)cccc1Cl	inactive: 2.43%	
CCOc1ccccc1CNS(=O)(=O)c1csc(C(N)=O)c1	inactive: -1.81%	
COC(=O)c1cc(NC(=O)CCc2c(C)nc3cc(-c4ccccc4)nn3c2C)cc(C(=O)OC)c1	inactive: -12.6%	
CC1CCN(S(=O)(=O)c2cc(C(=O)Nc3ccc(Br)cc3F)n(C)c2)CC1	inactive: -5.63%	
O=C(Cn1ncc2c(Cl)cccc21)NCc1cccc(Br)c1	inactive: -2.71%	
O=C(NC1CCCCC1)c1ccc(CSc2nc3cccnc3n2Cc2ccccc2F)cc1	inactive: 0.686%	
Cc1ccc(Cn2c(CCCNC(=O)C3CCCCC3)nc3ccccc32)cc1	inactive: -6.95%	
CC(C)CCNC(=O)c1ccc2c(c1)N(Cc1ccccc1F)C(=O)c1ccccc1S2=O (configuration not stated)	inactive: -14.5%	
COc1ccccc1OCC(=O)NCC1(N(C)C)CCCCC1	inactive: -2.13%	
Cc1ccc(N2CC(NC(=O)C(=O)c3c[nH]c4ccccc34)CC2=O)cc1 (configuration not stated)	inactive: -1.27%	
Oc1ccc(NCc2ccc(OCc3ccccc3Cl)cc2)cc1		active: 16.5 µM
O=C(CSc1nc(=O)n(Cc2cccnc2)c2c1CCC2)Nc1ccc(F)cc1F	inactive: -1.67%	
Cc1ccc(Cc2nc3ccccc3nc2SCC(=O)N2CCCCC2C)cc1 (configuration not stated)	inactive: -13.5%	
N#C/C(=C\c1c(Oc2ccc(Br)cc2)nc2ccccn2c1=O)c1nc2ccccc2s1	inactive: -17%	
COC(=O)c1cccc(NC(=O)Nc2cc(C(=O)NCc3cccc(F)c3)ccc2N2CCCC2)c1	inactive: 19.9%	
COc1ccc(N2CCN(C(=O)CS(=O)(=O)c3cccc4nsnc34)CC2)cc1	inactive: -17%	
CC(=O)N1CCc2cc(Br)cc(S(=O)(=O)N3CCN(c4cccc(C)c4)C(C)C3)c21 (configuration not stated)	inactive: 2.88%	
O=C(NCCc1csc(-c2cccnc2)n1)c1ccc(F)c(F)c1	inactive: -5.54%	
CCCCN1CCc2nc(N3CCN(C)CC3)ncc2C1	inactive: 0%	
COc1ccccc1N1CCN(C(=O)c2cn(C)c3ccc(S(=O)(=O)N4CCOCC4)cc3c2=O)CC1	inactive: -3.15%	
